Assay [1] has as its target T1, Serine/threonine/tyrosine kinase 1 (STYK1), endogenous (human (endogenous in AsPC-1, PANC-1, SW1990, MIA-PACA-2)) (UniProt Q6J9G0).
T1 sequence: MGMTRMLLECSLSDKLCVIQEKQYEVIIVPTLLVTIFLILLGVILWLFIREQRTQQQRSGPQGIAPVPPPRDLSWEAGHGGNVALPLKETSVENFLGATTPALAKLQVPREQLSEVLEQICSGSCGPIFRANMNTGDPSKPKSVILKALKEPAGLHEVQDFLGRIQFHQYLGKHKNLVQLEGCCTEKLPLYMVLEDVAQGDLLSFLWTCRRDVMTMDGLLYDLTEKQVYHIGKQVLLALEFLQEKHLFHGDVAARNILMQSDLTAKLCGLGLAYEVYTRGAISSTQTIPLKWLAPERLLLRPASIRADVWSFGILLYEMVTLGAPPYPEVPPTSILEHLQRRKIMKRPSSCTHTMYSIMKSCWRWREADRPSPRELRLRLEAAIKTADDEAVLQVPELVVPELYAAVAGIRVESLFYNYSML
Kind of assay: co-IP; endogenous proteins, co-IP/Western with specific antibodies in AsPC-1, PANC-1, SW1990, MIA-PACA-2 cells.

Chains of the proteins cited; added tags and fusions are not shown. Lines headed by an entry give the natural chain unless they say otherwise; changes in a name come on top. Residues count along the entry.
UniProt P35222: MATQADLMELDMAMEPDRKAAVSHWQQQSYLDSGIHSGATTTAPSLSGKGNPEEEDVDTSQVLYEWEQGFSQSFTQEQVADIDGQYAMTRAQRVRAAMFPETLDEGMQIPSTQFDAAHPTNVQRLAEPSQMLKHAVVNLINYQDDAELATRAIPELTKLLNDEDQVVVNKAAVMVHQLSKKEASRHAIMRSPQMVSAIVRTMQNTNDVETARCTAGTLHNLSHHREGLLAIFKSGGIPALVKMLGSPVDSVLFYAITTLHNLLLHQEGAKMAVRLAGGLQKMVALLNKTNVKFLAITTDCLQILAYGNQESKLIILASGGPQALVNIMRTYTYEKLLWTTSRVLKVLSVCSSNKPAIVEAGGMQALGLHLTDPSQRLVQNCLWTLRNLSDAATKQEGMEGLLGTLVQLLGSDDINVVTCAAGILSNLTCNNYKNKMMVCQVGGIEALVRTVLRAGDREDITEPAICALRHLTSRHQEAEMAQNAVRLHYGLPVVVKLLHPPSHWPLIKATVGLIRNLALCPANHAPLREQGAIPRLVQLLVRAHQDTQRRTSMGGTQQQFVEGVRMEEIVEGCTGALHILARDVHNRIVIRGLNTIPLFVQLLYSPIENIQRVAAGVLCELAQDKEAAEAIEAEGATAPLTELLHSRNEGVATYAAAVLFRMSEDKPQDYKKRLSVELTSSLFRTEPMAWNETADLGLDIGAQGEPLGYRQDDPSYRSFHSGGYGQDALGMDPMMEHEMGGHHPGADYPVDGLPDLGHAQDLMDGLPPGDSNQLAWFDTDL
UniProt O75581, residues 20-1613: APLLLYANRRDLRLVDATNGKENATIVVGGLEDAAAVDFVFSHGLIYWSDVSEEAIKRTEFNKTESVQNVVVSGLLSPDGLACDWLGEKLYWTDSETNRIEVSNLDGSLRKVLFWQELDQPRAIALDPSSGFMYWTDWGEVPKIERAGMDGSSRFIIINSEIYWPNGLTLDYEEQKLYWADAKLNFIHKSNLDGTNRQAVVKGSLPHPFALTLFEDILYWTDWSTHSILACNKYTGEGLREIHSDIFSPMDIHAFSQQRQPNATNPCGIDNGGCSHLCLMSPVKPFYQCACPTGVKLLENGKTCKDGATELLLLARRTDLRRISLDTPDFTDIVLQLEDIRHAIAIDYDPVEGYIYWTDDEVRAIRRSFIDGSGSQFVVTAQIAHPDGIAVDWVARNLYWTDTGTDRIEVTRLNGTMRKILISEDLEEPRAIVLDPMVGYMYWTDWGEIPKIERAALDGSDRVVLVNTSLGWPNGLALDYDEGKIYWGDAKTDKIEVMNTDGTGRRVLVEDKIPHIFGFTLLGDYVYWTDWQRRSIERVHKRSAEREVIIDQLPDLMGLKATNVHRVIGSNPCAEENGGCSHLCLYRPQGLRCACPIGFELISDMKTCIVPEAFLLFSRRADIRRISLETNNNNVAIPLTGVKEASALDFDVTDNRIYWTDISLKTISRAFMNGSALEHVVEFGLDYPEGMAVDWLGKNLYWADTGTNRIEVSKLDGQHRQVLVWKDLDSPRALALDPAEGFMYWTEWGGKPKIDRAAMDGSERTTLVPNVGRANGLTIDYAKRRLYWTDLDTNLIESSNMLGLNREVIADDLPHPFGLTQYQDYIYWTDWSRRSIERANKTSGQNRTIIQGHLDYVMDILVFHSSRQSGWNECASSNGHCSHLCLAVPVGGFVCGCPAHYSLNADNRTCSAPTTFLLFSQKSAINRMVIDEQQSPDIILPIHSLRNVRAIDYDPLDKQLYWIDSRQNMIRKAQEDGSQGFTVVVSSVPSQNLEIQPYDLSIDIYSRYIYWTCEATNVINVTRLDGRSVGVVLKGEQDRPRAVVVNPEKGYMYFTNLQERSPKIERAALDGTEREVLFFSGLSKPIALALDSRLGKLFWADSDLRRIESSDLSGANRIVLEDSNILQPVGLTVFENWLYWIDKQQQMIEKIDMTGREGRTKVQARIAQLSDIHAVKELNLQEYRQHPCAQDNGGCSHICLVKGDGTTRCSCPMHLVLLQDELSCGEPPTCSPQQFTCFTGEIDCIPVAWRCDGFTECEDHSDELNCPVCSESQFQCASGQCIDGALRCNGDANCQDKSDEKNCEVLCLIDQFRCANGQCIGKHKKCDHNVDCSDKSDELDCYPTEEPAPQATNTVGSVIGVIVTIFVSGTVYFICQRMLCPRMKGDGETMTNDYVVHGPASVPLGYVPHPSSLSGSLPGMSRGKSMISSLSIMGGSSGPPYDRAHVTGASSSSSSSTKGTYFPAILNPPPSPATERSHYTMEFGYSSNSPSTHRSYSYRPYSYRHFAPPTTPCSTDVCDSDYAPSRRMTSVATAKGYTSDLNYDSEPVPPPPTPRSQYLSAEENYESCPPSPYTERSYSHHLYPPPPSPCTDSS
UniProt O15169: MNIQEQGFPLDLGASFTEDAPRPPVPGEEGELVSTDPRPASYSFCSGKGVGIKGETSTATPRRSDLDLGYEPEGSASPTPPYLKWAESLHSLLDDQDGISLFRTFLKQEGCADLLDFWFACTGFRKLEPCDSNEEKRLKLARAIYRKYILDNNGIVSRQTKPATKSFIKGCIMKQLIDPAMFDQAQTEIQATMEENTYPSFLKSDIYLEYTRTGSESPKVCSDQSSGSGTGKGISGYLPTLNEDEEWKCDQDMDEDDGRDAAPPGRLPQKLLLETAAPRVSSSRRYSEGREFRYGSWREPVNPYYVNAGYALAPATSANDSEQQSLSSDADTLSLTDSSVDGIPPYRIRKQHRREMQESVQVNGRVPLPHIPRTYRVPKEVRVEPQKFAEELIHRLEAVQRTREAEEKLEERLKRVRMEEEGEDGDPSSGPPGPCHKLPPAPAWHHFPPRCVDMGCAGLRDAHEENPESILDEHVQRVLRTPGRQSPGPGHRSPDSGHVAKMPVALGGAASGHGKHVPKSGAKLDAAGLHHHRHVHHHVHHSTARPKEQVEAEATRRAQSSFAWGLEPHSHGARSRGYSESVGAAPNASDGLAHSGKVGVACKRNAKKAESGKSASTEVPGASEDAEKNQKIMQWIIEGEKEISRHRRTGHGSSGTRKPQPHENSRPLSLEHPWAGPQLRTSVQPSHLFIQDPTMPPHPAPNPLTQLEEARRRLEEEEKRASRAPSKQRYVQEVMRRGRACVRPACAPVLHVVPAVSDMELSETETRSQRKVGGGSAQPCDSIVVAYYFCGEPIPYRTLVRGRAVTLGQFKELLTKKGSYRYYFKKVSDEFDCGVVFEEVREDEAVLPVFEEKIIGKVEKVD
UniProt Q96CW1: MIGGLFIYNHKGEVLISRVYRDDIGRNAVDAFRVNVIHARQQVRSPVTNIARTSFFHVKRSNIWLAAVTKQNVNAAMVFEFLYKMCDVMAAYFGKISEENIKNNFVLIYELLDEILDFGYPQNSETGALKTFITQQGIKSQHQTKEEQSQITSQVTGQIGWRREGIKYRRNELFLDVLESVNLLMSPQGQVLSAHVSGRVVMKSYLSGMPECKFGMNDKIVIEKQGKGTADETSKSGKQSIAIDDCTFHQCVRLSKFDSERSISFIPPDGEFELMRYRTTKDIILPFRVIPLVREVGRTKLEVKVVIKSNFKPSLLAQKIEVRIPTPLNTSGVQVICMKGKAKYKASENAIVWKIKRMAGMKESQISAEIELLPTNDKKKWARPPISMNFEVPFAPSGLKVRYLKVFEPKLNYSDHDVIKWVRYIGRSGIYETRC
UniProt P49841: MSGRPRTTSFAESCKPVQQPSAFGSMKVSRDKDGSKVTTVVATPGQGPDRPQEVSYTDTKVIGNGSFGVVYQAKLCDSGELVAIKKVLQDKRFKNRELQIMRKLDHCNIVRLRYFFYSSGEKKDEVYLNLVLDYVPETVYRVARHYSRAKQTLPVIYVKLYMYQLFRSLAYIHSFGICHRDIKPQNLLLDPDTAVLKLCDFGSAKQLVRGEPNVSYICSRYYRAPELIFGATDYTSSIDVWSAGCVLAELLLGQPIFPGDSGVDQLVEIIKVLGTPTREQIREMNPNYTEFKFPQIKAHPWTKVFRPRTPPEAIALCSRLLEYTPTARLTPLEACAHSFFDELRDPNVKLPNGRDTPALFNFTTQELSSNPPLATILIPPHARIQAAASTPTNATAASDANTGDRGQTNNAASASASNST
UniProt P51451: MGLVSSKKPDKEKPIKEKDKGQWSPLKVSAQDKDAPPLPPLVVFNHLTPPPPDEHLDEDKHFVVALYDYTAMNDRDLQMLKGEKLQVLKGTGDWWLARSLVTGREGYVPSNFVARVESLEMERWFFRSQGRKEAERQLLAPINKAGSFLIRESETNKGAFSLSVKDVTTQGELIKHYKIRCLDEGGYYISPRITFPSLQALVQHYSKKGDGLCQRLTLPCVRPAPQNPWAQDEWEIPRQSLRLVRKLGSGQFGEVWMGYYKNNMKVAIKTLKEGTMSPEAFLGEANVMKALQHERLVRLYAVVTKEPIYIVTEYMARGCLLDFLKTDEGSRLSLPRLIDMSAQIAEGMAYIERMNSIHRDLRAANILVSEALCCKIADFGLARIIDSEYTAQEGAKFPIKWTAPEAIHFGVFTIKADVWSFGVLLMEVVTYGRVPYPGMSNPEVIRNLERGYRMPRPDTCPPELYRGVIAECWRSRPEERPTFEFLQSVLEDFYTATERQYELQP

In assay [2] the target is β-catenin, endogenous (human (endogenous in HEK293T, AsPC-1, PANC-1, SW1990, MIA-PACA-2)) (UniProt P35222). Kind of assay: co-IP; endogenous Axin1, GSK3β and β-catenin in AsPC-1 cells upon STYK1-driving peptides.
For assay [3], the target named is T2, HA-tagged wild-type STYK1 (UniProt Q6J9G0).
T2 sequence: T1 sequence
The assay is described as follows: co-IP; Flag-tagged AP1/2 μ subunits with HA-tagged STYK1 wild type or SS1, SS2, SS3 mutants.

Assay [4] deals with T3, HA-tagged STYK1 SS1 mutant (Y191/L194 mutated to alanine) (UniProt Q6J9G0).
T3 sequence: T1 sequence with Y191A, L194A
Described as above.

For assay [5], the target named is T4, GST-tagged STYK1 ICD (aa 26-422) (UniProt Q6J9G0).
T4 sequence: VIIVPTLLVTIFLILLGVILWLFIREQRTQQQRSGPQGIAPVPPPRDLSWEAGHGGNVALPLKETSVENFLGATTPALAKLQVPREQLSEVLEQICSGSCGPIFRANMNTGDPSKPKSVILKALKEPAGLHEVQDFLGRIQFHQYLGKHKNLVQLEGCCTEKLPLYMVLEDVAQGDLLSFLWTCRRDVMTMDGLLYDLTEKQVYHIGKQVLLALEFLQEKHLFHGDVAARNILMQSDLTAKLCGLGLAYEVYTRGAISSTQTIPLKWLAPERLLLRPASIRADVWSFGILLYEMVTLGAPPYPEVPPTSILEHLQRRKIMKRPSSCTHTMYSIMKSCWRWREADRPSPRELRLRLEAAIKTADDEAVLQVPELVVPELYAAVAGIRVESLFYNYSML
The assay is described as follows: pull-down; GST pull-down with STYK1 ICD and truncation mutants of the partner from HEK293T transfectants; only the target purified.

The target of assay [6] is Low-density lipoprotein receptor-related protein 6 (LRP6) (UniProt O75581). Kind of assay: co-IP; LRP6 immunoprecipitate blotted for p-GSK3β Y216; STYK1 depletion, with or without Wnt3a.
The target in assay [7] is T4, GST-tagged STYK1 ICD (aa 26-422). Kind of assay: pull-down; purified recombinant GST-tagged STYK1 ICD with BLK (Supplementary Fig. 7a, not shown; source of BLK not told); only the target purified.
The target in assay [8] is T5, Flag-tagged STYK1 (UniProt Q6J9G0).
T5 sequence: T1 sequence
Kind of assay: co-IP; Flag-STYK1 with TEC/SRC kinase subfamily members and HA-tagged BLK mutants in HEK293T cells.

Assay [9] has as its target T5, Flag-tagged STYK1. The assay is described as follows: co-IP; β-catenin Arm repeat truncations with STYK1 in HEK293T transfectants (text: co-immunoprecipitation; legend: GST pull-down).

Residue numbers refer to the chain shown, from its start. No constants are given. Whether binding was seen depends on the method and setting. In cells and extracts the contact can be indirect. Some binding calls cover weakened binding; strength is not graded here. For some of these results: Sequences can lack the tags named with a protein.

With “Axin1, endogenous (from UniProt O15169 1-862)”, the binding entry in assay [1] and in [2] was “binds” in each case. Consider “Flag-tagged AP2 μ subunit (from UniProt Q96CW1 1-435)”, for which the binding result in assay [3] is “binds”; in assay [4] it was “no binding”. In the case of “GSK3β kinase domain (123-353 aa) (from UniProt P49841 123-353) (domain or fragment)”, the binding result in assay [5] was “binds”.

On to “GSK3β phosphorylated at Y216 (p-GSK3β Y216) (from UniProt P49841 1-420)”, for which, in [6], the binding entry was “binds”. Regarding “Glycogen synthase kinase 3β (GSK3β), endogenous (from UniProt P49841 1-420)”, the binding result in assay [1] is given as “binds”.

In the case of “HA-tagged BLK kinase (from UniProt P51451 1-505) (enzyme)”, the binding result in assay [7] and in [8] was “binds” throughout.

As for “β-catenin Arm repeats 1-3 (151-276 aa) (from UniProt P35222 151-276) (domain or fragment)”, the binding result in [9] is on record as “binds”. For “β-catenin Arm repeats 10-12 (530-666 aa) (from UniProt P35222 530-666) (domain or fragment)”, in assay [9], the binding entry is recorded as “binds”. For “β-catenin Arm repeats region (151-666 aa) (from UniProt P35222 151-666) (domain or fragment)”, the binding entry in assay [5] was “binds”. Consider “β-catenin, endogenous (from UniProt P35222 1-781)”, for which, in assay [1], the binding entry was “binds”.

The values are drawn from PMC12209456, “Serine/threonine/tyrosine kinase 1 drives pancreatic carcinogenesis via GSK3β sequestration-mediated Wnt/β-catenin pathway hyperactivation” (Signal Transduction and Targeted Therapy, 2025).
